# Assay results from publication PMC4336329 (PLoS ONE, 2015).
# About 2,200 (0.71%) of roughly 310,000 compounds showed an effect of 50% or more. The effect is printed as a negative number. Some of the results follow.
# Molecular target: human ether-à-go-go-related gene (hERG) potassium channel (human, UniProt Q12809)
# Experiment: primary screen, population patch clamp on CHO cells stably expressing hERG
# human ether-à-go-go-related gene (hERG) potassium channel, sequence (Q12809 whole entry, looked up): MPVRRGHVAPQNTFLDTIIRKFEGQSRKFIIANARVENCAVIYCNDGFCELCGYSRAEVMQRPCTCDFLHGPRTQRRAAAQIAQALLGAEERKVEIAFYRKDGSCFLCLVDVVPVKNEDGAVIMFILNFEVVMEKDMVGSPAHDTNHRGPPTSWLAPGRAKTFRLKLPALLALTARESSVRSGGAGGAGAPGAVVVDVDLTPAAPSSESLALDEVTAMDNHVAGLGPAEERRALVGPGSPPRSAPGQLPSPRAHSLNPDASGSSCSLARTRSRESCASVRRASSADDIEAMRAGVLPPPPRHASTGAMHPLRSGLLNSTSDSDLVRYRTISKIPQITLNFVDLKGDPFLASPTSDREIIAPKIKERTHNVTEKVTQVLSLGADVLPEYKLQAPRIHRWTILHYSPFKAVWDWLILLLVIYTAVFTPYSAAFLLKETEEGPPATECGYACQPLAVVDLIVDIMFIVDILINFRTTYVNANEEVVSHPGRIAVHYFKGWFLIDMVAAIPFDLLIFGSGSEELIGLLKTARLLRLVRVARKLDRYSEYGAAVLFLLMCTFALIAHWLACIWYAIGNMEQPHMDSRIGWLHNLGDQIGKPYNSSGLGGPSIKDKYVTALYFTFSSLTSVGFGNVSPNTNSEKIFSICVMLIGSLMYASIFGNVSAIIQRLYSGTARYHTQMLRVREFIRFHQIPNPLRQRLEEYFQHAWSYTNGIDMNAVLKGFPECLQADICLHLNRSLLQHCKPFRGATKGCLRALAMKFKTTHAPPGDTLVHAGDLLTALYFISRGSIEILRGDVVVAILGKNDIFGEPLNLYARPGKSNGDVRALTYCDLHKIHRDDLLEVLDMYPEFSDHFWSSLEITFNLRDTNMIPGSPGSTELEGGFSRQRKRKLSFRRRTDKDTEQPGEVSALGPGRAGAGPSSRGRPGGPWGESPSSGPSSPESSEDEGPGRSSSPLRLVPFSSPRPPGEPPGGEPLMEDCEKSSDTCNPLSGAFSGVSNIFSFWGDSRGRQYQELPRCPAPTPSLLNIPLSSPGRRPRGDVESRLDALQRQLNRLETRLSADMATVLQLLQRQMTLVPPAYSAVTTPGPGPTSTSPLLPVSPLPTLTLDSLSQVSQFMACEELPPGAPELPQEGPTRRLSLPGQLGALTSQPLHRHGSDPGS
row,SMILES,"hERG current change (%, negative = inhibition) at 1uM [%]"
1,Cc1ccc(-c2nc(NC(=O)c3nn(C)cc3[N+](=O)[O-])sc2C)cc1,5.71
2,COc1cccc(-n2c(SCC(=O)N3CCOCC3)nnc2-c2c[nH]c3ccccc23)c1,7.5
3,CCN1C(=O)N(C)C2(c3ccccc3)N(C)C(=O)N(C)C12c1ccccc1 (centres unmarked),10.5
4,Cc1ccc(/C=N/NC(=O)CNC(=O)Cc2ccccc2)o1,-3.63
5,Cc1nn(C)cc1CNC(=O)Nc1ccc(Br)cc1Cl,12.5
6,CCCS(=O)(=O)N1CCCC(C(=O)Oc2ccc(Cl)cc2)C1 (centres unmarked),17.4
7,CCN(CC)C(=O)CSc1nc2c(sc(=S)n2-c2ccc(C)cc2C)c(=O)[nH]1,16.1
8,Br.CCOC(=O)c1ccc(N=c2scc(C)n2CC)cc1,17.4
9,CCCn1c(SCC(=O)Nc2ccc(OC)cc2)nnc1-c1ccncc1,11.2
10,COc1cc(C2C(C(=O)OC(C)C)=C(C)Nc3[nH]c(=O)[nH]c(=O)c32)ccc1O (centres unmarked),11.2
11,COc1ccc(OC)c(-c2c[n+](=O)c3c(n2[O-])CCCC3)c1,16.2
12,CNC(=O)c1cc(S(=O)(=O)Nc2ccc3c(c2)OCO3)ccc1C,7.73
13,CC[n+]1c(C)sc2cc(OC)ccc21.[I-],14.9
14,Cc1cccc(NC(=O)Nc2ccc(C)cc2Br)c1,15.3
15,CN(C[C@H](Cc1ccccc1)N(CCN(CCc1ccccc1)N=O)N=O)N=O.[Na+],-0.0668
16,CN(C)S(=O)(=O)N1CCC(Oc2cccc(C(=O)N3CCCCCC3)c2)CC1,8.91
17,CC(=O)Nc1ccc(C)cc1NC(C)=O,16.8
18,Cc1ccc(N2C(=O)C3CC3C2=O)cc1 (centres unmarked),-0.374
19,Cn1c(SCC(=O)c2cc3ccccc3o2)nnc1-c1ccccc1,5.39
20,CC1CCN(C(=O)CSc2nc(N)cc(N)n2)CC1,0.706
21,O=C(COC(=O)CCc1ccccc1)NCc1ccccc1,12.3
22,CC(=O)c1ccc(NC(=O)C(C)n2c3ccccc3c3nc(=O)cc(C)n32)cc1 (centres unmarked),6.36
23,NC(=O)C1(N2CCCCC2)CCN(C(=O)c2cccs2)CC1,8.02
24,O=c1[nH]c(Cc2ccc(F)cc2)nc2scc(-c3ccc(F)cc3)c12,15.4
25,COCCn1c(SCC(=O)Nc2sc(C)c(C)c2C#N)nnc1C(C)C,5.85
26,Cc1cc(C)n2nc3nc(N4CCCC4)nc(-c4ccccc4)c3c2n1,9.42
